This note sets out measurements from publication PMC12014896 (2025).

Sequences and labels used below:
B1: COVIC-320 (antibody)
chain: EVQLLESGGGLVQPGGSLRLSCAASGRTFSEYAMGWFRQAPGKGLEFVSTISWSGGSTYYADSVKGRFTISRDNSKNTLYLQMNSLRAEDTAVYYCAAAGLGTVVSEWDYDYDYWGQGTLVTVSSGGSGGSEVQLLESGGGLVQPGGSLRLSCAASGRTFSEYAMGWFRQAPGKGLEFVSTISWSGGSTYYADSVKGRFTISRDNSKNTLYLQMNSLRAEDTAVYYCAAAGLGTVVSEWDYDYDYWGQGTLVTVSSGGGGSGGGGS[omitted - human IgG1 Fc]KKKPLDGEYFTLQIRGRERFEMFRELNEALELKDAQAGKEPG
B2: COVIC-62 (antibody)
chain: QVQLQESGGGLVQAGGSLRLSCAASGRTFSEYAMGWFRQAPGKEREFVATISWSGGSTYYTDSVKGRFTISRDNAKNTVYLQMNSLKPDDTAVYYCAAAGLGTVVSEWDYDYDYWGQGTQVTVSSGGSGGSQVQLQESGGGLVQAGGSLRLSCAASGRTFSEYAMGWFRQAPGKEREFVATISWSGGSTYYTDSVKGRFTISRDNAKNTVYLQMNSLKPDDTAVYYCAAAGLGTVVSEWDYDYDYWGQGTQVTVSSGGGGSGGGGS[omitted - human IgG1 Fc]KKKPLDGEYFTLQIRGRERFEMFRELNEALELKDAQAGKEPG
B3: COVIC-316 (antibody)
chain: EVQLLESGGGLVQPGGSLRLSCAASGRTFSEYAMGWFRQAPGKGLEFVSTISWSGGSTYYADSVKGRFTISRDNSKNTLYLQMNSLRAEDTAVYYCAAAGLGTVVSEWDYDYDYWGQGTLVTVSSGGSGGSEVQLLESGGGLVQPGGSLRLSCAASGRTFSEYAMGWFRQAPGKGLEFVSTISWSGGSTYYADSVKGRFTISRDNSKNTLYLQMNSLRAEDTAVYYCAAAGLGTVVSEWDYDYDYWGQGTLVTVSSGGGGSGGGGS[omitted - human IgG1 Fc]KKKPLDGEYFTLQIRGRERFEMFRELNEALELKDAQAGKEPGGGGGSGGGGSEVQLLESGGGLVQPGGSLRLSCAASGRTFSEYAMGWFRQAPGKGLEFVSTISWSGGSTYYADSVKGRFTISRDNSKNTLYLQMNSLRAEDTAVYYCAAAGLGTVVSEWDYDYDYWGQGTLVTVSSGGSGGSEVQLLESGGGLVQPGGSLRLSCAASGRTFSEYAMGWFRQAPGKGLEFVSTISWSGGSTYYADSVKGRFTISRDNSKNTLYLQMNSLRAEDTAVYYCAAAGLGTVVSEWDYDYDYWGQGTLVTVSS
B4: COVIC-7 (antibody)
chain: SRNGGDGQSVLTQPPSVSVSPGQTASITCSGDSLGSKYACWYQQKPGQSPVLVIYQDSKRPSGIPERFSGSNSGNTATLTISGTQAMDEADYYCQAWDPHWTVVFGTGTKVTVSSQTGGSGGGGSGGGGSGGGGS[omitted - about 100 residues]SVYYGSGAFDIWGQGTMVTVSSS
B5: COVIC-319 (antibody)
chain: SLDQINVTFLDLEYEMKKLEEAIKKLEESYIDLKELGSGSG[omitted - human IgG1 Fc]KKKPLDGEYFTLQIRGRERFEMFRELNEALELKDAQAGKEPGGGGGSGGGGSEVQLLESGGGLVQPGGSLRLSCAASGRTFSEYAMGWFRQAPGKGLEFVSTISWSGGSTYYADSVKGRFTISRDNSKNTLYLQMNSLRAEDTAVYYCAAAGLGTVVSEWDYDYDYWGQGTLVTVSSGGSGGSEVQLLESGGGLVQPGGSLRLSCAASGRTFSEYAMGWFRQAPGKGLEFVSTISWSGGSTYYADSVKGRFTISRDNSKNTLYLQMNSLRAEDTAVYYCAAAGLGTVVSEWDYDYDYWGQGTLVTVSS
B6: COVIC-315 (antibody)
chain: EVQLLESGGGLVQPGGSLRLSCAASGRTFSEYAMGWFRQAPGKGLEFVSTISWSGGSTYYADSVKGRFTISRDNSKNTLYLQMNSLRAEDTAVYYCAAAGLGTVVSEWDYDYDYWGQGTLVTVSSGGSGGSEVQLLESGGGLVQPGGSLRLSCAASGRTFSEYAMGWFRQAPGKGLEFVSTISWSGGSTYYADSVKGRFTISRDNSKNTLYLQMNSLRAEDTAVYYCAAAGLGTVVSEWDYDYDYWGQGTLVTVSSGGGGSGGGGS[omitted - human IgG1 Fc]KKKPLDGEYFTLQIRGRERFEMFRELNEALELKDAQAGKEPGGGGGSGGGGSEVQLLESGGGLVQPGGSLRLSCAASGRTFSEYAMGWFRQAPGKGLEFVSTISWSGGSTYYADSVKGRFTISRDNSKNTLYLQMNSLRAEDTAVYYCAAAGLGTVVSEWDYDYDYWGQGTLVTVSS
B7: COVIC-8 (antibody)
chain: SRNGGDGNFMLTQPHSVSESPGKTVTISCTRSSGSIASNYVQWYQQRPGSAPTTVIYEDNQRPSGVPDRFSGSIDSSSNSASLTISGLKTEDEADYYCQSYDTHTMQVVFGTGTKVTVSSQTGGSGGGGSGGGGSGGGGS[omitted - about 100 residues]ATHFSSSDIFAFDIWGQGTMVTVSSSS
B8: COVIC-6 (antibody)
chain: SRNGGDGNFMLTQPHSVSESPGKTVTISCTRSSGSIASNYVQWYQQRPGSAPTTVIYEDNQRPSGVPDRFSGSIDSSSNSASLTISGLKTEDEADYYCQSYDAHNVVFGTGTKVTVSSQTGGSGGGGSGGGGSGGGGS[omitted - about 100 residues]GTYFGSVHMYAFDIWGQGTMVTVSSS
B9: COVIC-318 (antibody)
chain: SLDQINVTFLDLEYEMKKLEEAIKKLEESYIDLKELGSGSG[omitted - human IgG1 Fc]KKKPLDGEYFTLQIRGRERFEMFRELNEALELKDAQAGKEPGGGGGSGGGGSEVQLLESGGGLVQPGGSLRLSCAASGRTFSEYAMGWFRQAPGKGLEFVSTISWSGGSTYYADSVKGRFTISRDNSKNTLYLQMNSLRAEDTAVYYCAAAGLGTVVSEWDYDYDYWGQGTLVTVSS
B10: COVIC-73 (antibody)
chain: [omitted - about 100 residues]SVYYGSGAFDIWGQGTMVTVSSGGGGSQSVLTQPPSVSVSPGQTASITCSGDSLGSKYACWYQQKPGQSPVLVIYQDSKRPSGIPERFSGSNSGNTATLTISGTQAMDEADYYCQAWDPHWTVVFGTGTKVTVSSS
B11: COVIC-370 (antibody)
chain: EVQLVESGGGLVQPGGSLRLSCAASGSTFSINAMGWFRQAPGKEREFVAGITSSGGYTNYADSVKGRFTISADNSKNTAYLQMNSLKPEDTAVYYCAADGVPEYSDYASGPVWGQGTLVTVSSGGGGSGGGGSASEVQLVESGGGLVQPGGSLRLSCAASGFTFSPSWMGWFRQAPGKEREFVATINEYGGRNYADSVKGRFTISADNSKNTAYLQMNSLKPEDTAVYYCARVDRDFDYWGQGTLVTVSSGGGGS[omitted - human IgG1 Fc with C220S (EU numbers)]
B12: COVIC-65 (antibody)
chain: QVQLQESGGGLVQAGGSLRLSCAASGRTFSEYAMGWFRQAPGKEREFVATISWSGGSTYYTDSVKGRFTISRDNAKNTVYLQMNSLKPDDTAVYYCAAAGLGTVVSEWDYDYDYWGQGTQVTVSSGGSGGSQVQLQESGGGLVQAGGSLRLSCVASGSIFSINAMDWYRQAPGKQRELVAGITSGGSTNYGDFVKGRFTISRDNAKNTVYLQMDSLKPEDTAVYYCAAEVGGWGPPRPDYWGHGTQVTVSSGGGGSGGGGS[omitted - human IgG1 Fc]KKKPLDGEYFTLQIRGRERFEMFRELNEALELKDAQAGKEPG
B13: COVIC-371 (antibody)
chain: EVQLVESGGGLVQPGGSLRLSCAASGFTFSPSWMGWFRQAPGKEREFVATINEYGGRNYADSVKGRFTISADNSKNTAYLQMNSLKPEDTAVYYCARVDRDFDYWGQGTLVTVSSGGGGS[omitted - human IgG1 Fc with C220S (EU numbers)]GGGSGGGGSASEVQLVESGGGLVQPGGSLRLSCAASGSTFSINAMGWFRQAPGKEREFVAGITSSGGYTNYADSVKGRFTISADNSKNTAYLQMNSLKPEDTAVYYCAADGVPEYSDYASGPVWGQGTLVTVSSEVQLVESGGGLVQPGGSLRLSCAASGSTFSINAMGWFRQAPGKEREFVAGITSSGGYTNYADSVKGRFTISADNSKNTAYLQMNSLKPEDTAVYYCAADGVPEYSDYASGPVWGQGTLVTVSS
B14: COVIC-314 (antibody)
chain: EVQLLESGGGLVQPGGSLRLSCAASGRTFSEYAMGWFRQAPGKGLEFVSTISWSGGSTYYADSVKGRFTISRDNSKNTLYLQMNSLRAEDTAVYYCAAAGLGTVVSEWDYDYDYWGQGTLVTVSSGGSGGSEVQLLESGGGLVQPGGSLRLSCAASGRTFSEYAMGWFRQAPGKGLEFVSTISWSGGSTYYADSVKGRFTISRDNSKNTLYLQMNSLRAEDTAVYYCAAAGLGTVVSEWDYDYDYWGQGTLVTVSSGGSGGSEVQLLESGGGLVQPGGSLRLSCAASGRTFSEYAMGWFRQAPGKGLEFVSTISWSGGSTYYADSVKGRFTISRDNSKNTLYLQMNSLRAEDTAVYYCAAAGLGTVVSEWDYDYDYWGQGTLVTVSSGGGGSGGGGS[omitted - human IgG1 Fc]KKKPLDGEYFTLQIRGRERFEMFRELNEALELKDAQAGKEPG

For the test, the target named is SARS-CoV-2 spike RBD (Wuhan-Hu-1) (Severe acute respiratory syndrome …). Put plainly: SPR.
For B1, binding was put at a Kd of 30.7 nM. Regarding B2, the Kd (usually the equilibrium constant for the complex coming apart) came out at 63.8 nM. As for B3, the figure is 34.1 nM.

Molecule B4 showed a Kd of 17.2 nM. As for B5, the figure is 30.9 nM. Then B6, with 44.5 nM; and B7, with 23.6 nM. As for B8, the figure is 87.1 nM; as for B9, 58.7 nM. Turning to B10, the Kd worked out at 24.9 nM. As for B11, the figure is 0.116 nM; as for B12, 51 nM; as for B13, 1.17 nM. Then B14, with 22.8 nM.
